# In the supplement of paper PMC3334620:
# The full ranking holds about 33,000 sequences; the median of “E-score (-0.5 to 0.5)” is about -0.04, and the highest 2% start at about 0.36. The list shows a part of the results.
# Biological target: T1, Hmlalpha2 (UniProt P0CY09)
# T1 sequence: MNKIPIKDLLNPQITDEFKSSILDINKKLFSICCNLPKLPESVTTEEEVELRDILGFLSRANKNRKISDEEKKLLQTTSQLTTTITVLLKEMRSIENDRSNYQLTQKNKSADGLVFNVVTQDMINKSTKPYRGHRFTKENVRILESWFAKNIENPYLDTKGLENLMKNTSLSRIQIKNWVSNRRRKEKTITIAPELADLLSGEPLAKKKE
# Test: PBM E-score (8-mer binding enrichment) (E-score (-0.5 to 0.5)); higher = stronger / more preferred TF binding; most listed sequences are background and not binding sites
# Settings: protein concentration: 200 nM; construct: GST-full length
# How it was run: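 The E-score, a modified Wilcoxon-Mann-Whitney statistic, was computed by the Universal PBM Analysis Suite for every ungapped eight-base word pooled with its reverse complement. Scans behind it were normalised with masliner after bound GST-tagged yeast transcription factors were detected with fluorescent anti-GST. The proteins, at about 100-200 nM, had been applied to universal all-10-mer Agilent arrays made double-stranded by primer extension.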
row,Sequence,PBM E-score
1,CGTCTCGA,0.0152
2,GGCGACAC,-0.041
3,AATGATTA,0.132
4,AAGGATCC,-0.175
5,GCGTCTTA,0.00542
6,GGCTGAAC,-0.147
7,ATGAAATG,-0.19
8,CCGACACC,-0.273
9,AGGAAGTG,-0.115
10,GTACGTGA,0.108
11,ACGATGCC,-0.219
12,ATCAACAA,0.306
13,ATAAGTTG,0.0554
14,CTAAAGCC,-0.19
15,ACGACGTA,0.308
16,GCGCAACA,0.0852
17,CCGGTAAC,0.138
18,AACTACCT,0.178
19,ATACGGTG,-0.0688
20,CGTGTTAG,0.431
21,GCATGTTA,0.464
22,GAAAGGTC,-0.0765
23,ACTTGACG,0.197
24,ACCCTCTG,-0.174
25,AAGGCCTA,-0.0727

row,Sequence,PBM E-score
1,CTTTGCGA,-0.11
2,GGTTGATA,0.0269
3,AATTGTGT,0.338
4,GAGAGGCC,-0.307
5,CTAGTTTA,0.0168
6,CATTTACA,0.442
7,CGCGCTTA,0.21
8,AAAGTGGA,-0.216
9,ACTCATAT,-0.0255
10,AGGACGAG,-0.101
11,ATACTTTA,0.244
12,ATCTCTAG,-0.152
13,CCGTCCCC,-0.359
14,CTGCATAC,0.0722
15,TAGACAAA,0.124
16,CCAGGCCA,-0.322
17,AATGTTCG,-0.0319
18,AACTCAAT,-0.0255
19,AACAATGG,0.0641
20,GCGAATAC,0.163
21,CGGTACCC,-0.269
22,CCGCATGC,-0.23
23,AACTGGCA,-0.107
24,CCCAGCAG,-0.134
25,CAAGTTAA,0.271

row,Sequence,PBM E-score
1,TTCCCCAA,-0.0934
2,ACTATACT,0.076
3,CAGCATCA,-0.0056
4,GCCATTTA,0.00861
5,TATTTTGA,0.0855
6,TCGTCCAA,-0.0824
7,CAAAGGCA,0.0855
8,GCATGCCA,-0.181
9,ATGGGAAT,0.0681
10,CACGCTTC,0.0567
11,CTGTTCAA,0.0833
12,AAATAGCT,-0.128
13,GTGCGCTA,-0.121
14,CCCATTTC,-0.166
15,AAACGACT,-0.0906
16,CTATCATA,-0.0455
17,GAAGTGAC,0.0339
18,CCACATGA,0.109
19,CCCAATTA,-0.0735
20,CGAAGGGC,-0.207
21,CTCACGTC,-0.193
22,CGGGACTA,-0.208
23,GAAACGAA,-0.0129
24,AAAATATG,0.0339
25,ACGTTTAG,0.198

row,Sequence,PBM E-score
1,GCCAATTA,0.0643
2,ATGCTTCG,0.0186
3,CGTGTGTC,0.2
4,ACAGGATC,-0.0729
5,CGGGCTCC,-0.272
6,AAATGATC,-0.178
7,CTACAGGA,0.118
8,CAGGACCG,-0.226
9,GGCCTTAC,-0.0714
10,AAAGATAA,0.114
11,CGGGCGGA,-0.245
12,GGATGCGA,-0.247
13,CTTATCAC,0.033
14,AGGAAACT,-0.0759
15,ATTCCATC,-0.0617
16,ACCCTATA,-0.286
17,ATGATAGC,0.166
18,AAAGCCCA,-0.1
19,GAAAGTCA,0.119
20,AAGAATTA,0.102
21,ACCCGGAA,-0.0305
22,CATCCCCG,-0.276
23,CTGAAGGC,-0.294
24,GTCTAGAA,-0.0283
25,TATTTAGA,0.28

row,Sequence,PBM E-score
1,CAAAATTC,0.15
2,ATCTGGTC,-0.0992
3,TGATGCAA,0.0282
4,GACAAACA,0.136
5,TACAAGCA,0.313
6,CCATTGTA,0.222
7,TGCCGACA,-0.0586
8,AATGCACT,0.184
9,CCCGAAAC,-0.0665
10,ACGTATAT,0.279
11,AATTAACG,0.289
12,GCGTTAGA,0.00665
13,AACGCGAC,0.284
14,ATTACCTC,0.0281
15,ATGCAAAG,0.114
16,GGGCTTCA,-0.101
17,CAAACGCG,0.255
18,ATAGTCAG,0.047
19,GCACCAGA,-0.146
20,AGCCGCAA,-0.353
21,CCGCTTTC,-0.17
22,ACAATAAT,0.113
23,CGACCTCG,-0.106
24,ACTGAAGC,0.0129
25,CACTCCTG,-0.0169

row,Sequence,PBM E-score
1,TCACGAGA,-0.115
2,GTAAACAA,0.37
3,CGCCATCC,-0.192
4,ATGGGAAA,-0.15
5,ATAGCTCC,-0.221
6,CAAAAGTC,-0.0262
7,CACTCCAA,-0.0941
8,GCTATACA,0.203
9,GTGTCTTA,0.243
10,ACCATAGT,-0.117
11,GACTCGGC,-0.156
12,AGTACGCG,0.308
13,GCGTAATA,0.373
14,GAATAGTC,-0.118
15,TATCCCCA,-0.165
16,GTTCAATA,0.0286
17,CTTTCTTA,0.0716
18,AAGATCCA,-0.0804
19,CTTCCGGA,-0.134
20,AACAAGTA,0.172
21,CCCTCCCA,-0.177
22,AACCTCTG,-0.0402
23,TGGCGCCA,-0.163
24,ACTGGGTC,-0.288
25,ATGGTATA,0.178

row,Sequence,PBM E-score
1,GGAAAGAA,-0.00906
2,CGGGGTCA,-0.273
3,TGCGCCAA,-0.216
4,CCTGGGAC,-0.194
5,AGTATACG,0.128
6,AATTTACA,0.431
7,CCCCTTAC,-0.024
8,ACTACGCC,-0.187
9,CAATAGCA,-0.0841
10,ATAACATC,0.327
11,GCTTACGA,0.0137
12,AAAGAAAA,0.0731
13,CGTCTCAA,0.0229
14,ATTCTAAC,0.138
15,GTAATAGA,0.257
16,ACATTCAG,-0.00015
17,AAATAAAA,0.142
18,AGCCAGTA,-0.229
19,TAGATATA,0.0377
20,AATAACCA,0.103
21,AATACAAC,0.315
22,GAGGAATC,-0.207
